# Assay results reported in PubChem BioAssay AID504332 (National Center for Advancing Translational Sciences (NCATS), 2011).
# Screen size: about 350,000 compounds; about 31,000 (8.9%) were called active. The inconclusive results got no clear call from the source; some entries with a clear call stand among them for comparison. Calls follow the shape of the dose curve; as a rule, active = well fitted inhibition curve with a large enough effect; inconclusive = small, poorly fitted or top-dose-only effect; inactive = no such curve, though single readings can be large or run the other way. A potency beside an inconclusive call is a rough fit, not a confirmed value.
# Molecular target: Histone-lysine N-methyltransferase EHMT2 (Homo sapiens) (UniProt Q96KQ7)
# Assay: qHTS Assay for Inhibitors of Histone Lysine Methyltransferase G9a; also: nearly all actives have a fitted effect of over 75% in size
# Conditions: G9a H3K9 monomethylation, AlphaScreen, 2 h; activity, negative = inhibition: at 59 µM (top of the series) unless noted
# Procedure, shortened: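 Chemiluminescent proximity detection of H3K9 monomethylation, read after 10 min bead incubation in the dark. Reaction: 20 nM G9a, 500 nM biotin-H3K9 peptide, 20 uM SAM cofactor, 2 h, room temperature, following 15 min enzyme-compound preincubation.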
# % is scaled to controls: 0 for no effect and ±100 for the full control effect; potency is read from the fitted curve at half-maximal effect; tags tell the direction and shape of the fitted curve.
# Chain of UniProt Q96KQ7 (Q96KQ7 whole entry, looked up): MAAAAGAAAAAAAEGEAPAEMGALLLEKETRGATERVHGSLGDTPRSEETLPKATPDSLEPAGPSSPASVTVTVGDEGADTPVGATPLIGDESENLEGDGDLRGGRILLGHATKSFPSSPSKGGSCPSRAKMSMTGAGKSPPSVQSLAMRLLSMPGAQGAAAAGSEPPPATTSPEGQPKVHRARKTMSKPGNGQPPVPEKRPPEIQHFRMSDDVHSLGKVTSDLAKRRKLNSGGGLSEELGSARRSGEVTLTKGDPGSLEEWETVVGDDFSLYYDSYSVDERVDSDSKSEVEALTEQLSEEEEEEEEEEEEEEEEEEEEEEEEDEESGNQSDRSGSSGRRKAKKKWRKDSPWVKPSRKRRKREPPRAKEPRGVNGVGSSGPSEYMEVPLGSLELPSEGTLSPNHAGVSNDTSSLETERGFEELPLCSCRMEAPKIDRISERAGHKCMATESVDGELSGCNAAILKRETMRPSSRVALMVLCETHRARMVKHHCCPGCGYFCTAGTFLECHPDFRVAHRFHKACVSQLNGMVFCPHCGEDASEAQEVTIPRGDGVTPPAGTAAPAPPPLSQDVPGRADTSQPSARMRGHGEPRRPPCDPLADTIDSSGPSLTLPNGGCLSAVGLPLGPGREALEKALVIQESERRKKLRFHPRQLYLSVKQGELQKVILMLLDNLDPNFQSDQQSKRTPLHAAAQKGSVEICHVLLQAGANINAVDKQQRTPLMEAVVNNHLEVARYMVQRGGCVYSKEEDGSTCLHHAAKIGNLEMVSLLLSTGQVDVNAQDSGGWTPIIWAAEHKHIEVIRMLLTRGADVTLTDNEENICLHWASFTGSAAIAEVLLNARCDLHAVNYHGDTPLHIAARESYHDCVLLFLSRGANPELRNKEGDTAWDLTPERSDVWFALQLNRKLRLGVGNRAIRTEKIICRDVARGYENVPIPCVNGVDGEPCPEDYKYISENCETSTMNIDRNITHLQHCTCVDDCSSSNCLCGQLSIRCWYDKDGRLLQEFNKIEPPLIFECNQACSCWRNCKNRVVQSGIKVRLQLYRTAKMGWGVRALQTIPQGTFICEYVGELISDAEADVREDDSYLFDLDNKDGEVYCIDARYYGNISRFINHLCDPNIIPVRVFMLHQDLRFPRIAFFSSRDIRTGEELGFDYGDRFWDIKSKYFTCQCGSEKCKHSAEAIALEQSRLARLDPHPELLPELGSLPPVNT
SMILES,Potency,"activity, negative = inhibition"
Cc1nn(Cc2c(Cl)cccc2Cl)c(C)c1C(=O)NCc1ccc(C)n1C,active: 79.4 µM,
O=S(=O)(NCCNS(=O)(=O)c1ccccc1)c1ccccc1,"inconclusive: 39.8 µM [inhibitor, partial curve, poor fit]",
C=CCc1cccc(OC)c1OCCOCCn1ccnc1,"inconclusive: 6.31 µM [inhibitor, partial curve, poor fit]",
CCn1c(C)cc(C(=O)CSc2nnnn2C2CCCC2)c1C,"inconclusive: 39.8 µM [inhibitor, single point]",
Cc1ccc(S(=O)(=O)Cc2ccc(C(=O)N3CCN(c4ccc(F)cc4)CC3)o2)cc1,"inconclusive: 56.2 µM [inhibitor, partial curve, poor fit]",
CSc1nc(C(=O)N2CCc3c([nH]c4ccccc34)C2c2ccccn2)cs1 (stereo not drawn),,inconclusive: -62.6% [inhibitor] [at 0.501 µM]
COc1cc(OC)c(NC(=O)CCCn2nc(C)c3sc4ccccc4c3c2=O)cc1Cl,active: 14.1 µM,
C/C(=N\NC(=O)c1ccc(N(C)C)cc1)c1ccc(C)cc1C,"inconclusive: 100 µM [inhibitor, single point]",
C=CCN1C(=O)c2ccc(C(=O)N(CC(C)C)c3c(N)n(CCCC)c(=O)[nH]c3=O)cc2C1=O,"inconclusive: 89.1 µM [inhibitor, single point]",
COc1ccc(CNc2ncnc3cc(OC)c(OC)cc23)cc1,active: 39.8 µM,
S=C1NCN(Cc2ccccc2)CN1,"inconclusive: 39.8 µM [inhibitor, partial curve, poor fit]",
CN1CCN(c2nc(-c3ccc(Cl)c(Cl)c3)nc3ccccc23)CC1,,inactive: -1.12% [at 102 µM]
COCCn1c(N)c(C(=O)c2cccc(S(=O)(=O)N3CCCCCC3)c2)c(=O)[nH]c1=O,,inactive: -2.19% [at 12.7 µM]
O=C(CN1C(=O)/C(=C/c2ccccc2)SC1=S)Nc1ncc(Cc2ccccc2)s1,active: 50.1 µM,
Cc1ccc(NS(=O)(=O)Cc2ccccc2)cc1Cl,"inconclusive: 89.1 µM [inhibitor, single point]",
COc1cccc2c1Oc1ncccc1N(C(=O)CCC(=O)NCc1ccc(N(C)C)cc1)C2,"inconclusive: 11.2 µM [inhibitor, partial curve]",
COc1cc(OC)cc(C(=O)NNc2nc3cc4c(cc3s2)OCO4)c1,"inconclusive: 39.8 µM [inhibitor, partial curve, poor fit]",
Cc1oc(-c2cccc(Cl)c2)nc1CN1CCC(C(=O)NCCCN2CC(C)CC(C)C2)CC1 (stereo not drawn),,inactive: -10.5% [at 102 µM]
CCSc1nc2sc3c(c2c(=O)n1CC)CC(C)(C)OC3,,inactive: 24.8%
Cc1ccccc1C(=O)c1cccn1CC(=O)O,"inconclusive: 89.1 µM [inhibitor, single point]",
Cc1cc(=O)c2c(C)ccc(C)c2[nH]1,,inactive: 25.1% [at 102 µM]
C=CC[C@@H]1C=C[C@H](O/N=C/c2ccc(C(=O)N3[C@H](c4ccc(C)cc4)[C@@H](C)CC[C@H]3C(=O)OC)cc2)[C@@H](CO)O1,"inconclusive: 79.4 µM [inhibitor, single point]",
COC(=O)Cc1c(C)nc2nc(-c3cccnc3)[nH]n2c1=O,"inconclusive: 0.708 µM [inhibitor, full curve, poor fit]",

SMILES,Potency,"activity, negative = inhibition"
CCN(CC)CCNC(=O)/C(=N\O)c1ccccn1,,inactive: -19.7% [at 12.7 µM]
COc1ccc(-c2ncc3ccccn23)cc1,,inactive: -40.9% [at 102 µM]
COc1ccccc1Nc1nc(-c2sc(NC(=O)c3ccco3)nc2C)cs1,"inconclusive: 17.8 µM [inhibitor, single point]",
COc1cc(C)c(CNc2ccc(OC)c(OC)c2)cc1C,"inconclusive: 39.8 µM [inhibitor, single point]",
COC(=O)/C(=C(O)\C=C\c1ccccc1[N+](=O)[O-])c1nc2ccccc2[nH]1,,inactive: 16.1% [at 102 µM]
CC1=C(c2ccc(C)c(C)c2)S(=O)(=O)N=C1N1CCC(C(=O)NCCc2ccc(Cl)cc2)CC1,,inactive: 24.6%
CNC(=O)c1ccc(NC(=O)Cc2ccc(S(=O)(=O)N3CCOCC3)s2)cc1,active: 44.7 µM,
CCCCCOP(=O)(OCCCCC)C1(NS(=O)(=O)c2ccccc2)C=CC(=O)c2ccccc21 (stereo not drawn),active: 8.91 µM,
CCCCC(=O)NC1(C(F)(F)F)NC(=O)N(Cc2ccccc2)C1=O (stereo not drawn),"inconclusive: 0.794 µM [inhibitor, full curve, poor fit]",
CC(=O)CC(=O)NC(=NC1CCCCC1)Nc1nc(C)cc(C)n1,,inconclusive: -59.5% [inhibitor]
Cc1ccc(C)c(SCC(=O)OCC(=O)Nc2ncc(C(F)(F)F)cc2Cl)c1,"inconclusive: 39.8 µM [inhibitor, single point]",
CCOc1ccc(CN(C(=O)c2oc3cc(C)ccc3c2C)C2CCS(=O)(=O)C2)cc1 (stereo not drawn),"inconclusive: 70.8 µM [inhibitor, partial curve, poor fit]",
CCCCn1c(=O)c(CCC(=O)OCC(=O)Nc2ccc(F)c(Cl)c2)nc2ccccc21,,inactive: 1.21%
Cc1ccc(NC(=O)/C=C/C(=O)O)c(NC(=O)c2ccccc2)c1,"inconclusive: 89.1 µM [inhibitor, single point]",
COc1ccc(N2CCN(Cc3nc4scc(-c5ccccc5)c4c(=O)[nH]3)CC2)cc1,"inconclusive: 28.2 µM [inhibitor, single point]",
CC(=O)OCc1cnc(C)c2oc(=O)c(C(=O)Nc3cccc(F)c3)cc12,,inactive: 24.3%
CN(C)c1ccccc1-c1csc(N2CCC(C(N)=O)CC2)n1,"inconclusive: 3.98 µM [inhibitor, single point]",
OCCNc1nc(N2CCN(Cc3ccccc3)CC2)nc2ccccc12,"inconclusive: 70.8 µM [inhibitor, single point]",
O=C(NCc1ccco1)C1CCCN(S(=O)(=O)c2cccc3cccnc23)C1 (stereo not drawn),,inconclusive: -63% [inhibitor] [at 102 µM]
COc1cc(Cl)c(C)cc1NC(=O)c1cc2ccc3cccnc3c2[nH]1,,inactive: -8.94%
CNC(=O)COC(=O)c1ccc2c(c1)S(=O)(=O)c1ccccc1C2=O,"inconclusive: 89.1 µM [inhibitor, single point]",
Cc1ccc(-n2c(SCC(=O)Nc3ccc4c5c(cccc35)CC4)nc(O)c(C)c2=O)cc1,,inactive: 7.78%
Cc1ccc(C)c(S(=O)(=O)Nc2nc3ccc(S(N)(=O)=O)cc3s2)c1,active: 10 µM,

SMILES,Potency,"activity, negative = inhibition"
CN1CCc2cc(Cl)c(O)cc2C(c2ccccc2)C1 (stereo not drawn),,inactive: 29.4% [at 12.7 µM]
Cc1ccc(/C=C/C(=O)N2CCN(S(=O)(=O)c3c(C)c(C)cc(C)c3C)CC2)o1,active: 7.94 µM,
O=[N+]([O-])c1cc(/C=N/N2CCN(Cc3ccccc3)CC2)ccc1Cl,active: 28.2 µM,
O=C(Cn1cccn1)N1CCCC(Nc2ccc(F)c(F)c2)C1 (stereo not drawn),"inconclusive: 70.8 µM [inhibitor, partial curve, poor fit]",
COc1cccc(OC)c1C(=O)NC(=S)Nc1cc(-c2nc3ccccc3[nH]2)ccc1Cl,"inconclusive: 20 µM [inhibitor, partial curve, poor fit]",
Cc1nn(Cc2ccc(C(=O)Nc3ccccc3F)cc2)c(C)c1Cl,active: 44.7 µM,
O=C(CCCN1C(=O)c2ccccc2C1=O)Nc1nccs1,"inconclusive: 35.5 µM [inhibitor, single point]",
O=C(Cc1ccccc1F)NC1CCCN(Cc2ccc(Cl)cc2)C1 (stereo not drawn),"inconclusive: 89.1 µM [inhibitor, single point]",
CC1(c2nnc(-c3ccc(F)cc3)o2)CC(c2ccc([N+](=O)[O-])cc2)=NO1 (stereo not drawn),"inconclusive: 7.94 µM [inhibitor, single point]",
Cc1nc(N2CCCC2)c2c(C(=O)Nc3cccc(Cl)c3C)c(C)oc2n1,,inactive: -30.1%
COc1cccc(/C=N/NC(=O)CCC(=O)Nc2ccc(Br)cc2)c1,,inactive: -28.4% [at 2.33 µM]
O=C(O)CN1C(=O)/C(=C\c2cccc(OCc3ccccc3F)c2)SC1=S,"inconclusive: 44.7 µM [inhibitor, partial curve, poor fit]",
Cc1nc(CCN2C(=O)c3ccccc3C2=O)cs1,"inconclusive: 79.4 µM [inhibitor, partial curve, poor fit]",
COc1ccc(S(=O)(=O)Cc2ccc(C(=O)NCc3cccnc3)o2)cc1,"inconclusive: 31.6 µM [inhibitor, partial curve, poor fit]",
Cc1cc2ccccn2c1C(=O)c1nc(N2CCOCC2)ncc1Cl,active: 70.8 µM,
Cc1ccc(NC(=O)Nc2nnc(SCC(=O)Nc3ccc(F)cc3F)s2)cc1,"inconclusive: 20 µM [inhibitor, partial curve, poor fit]",
Cc1[nH]nc2c1C(c1ccc(Cl)cc1)C(C#N)=C(N)O2 (stereo not drawn),"inconclusive: 79.4 µM [inhibitor, partial curve, poor fit]",
O=C(CSc1nnc(-c2ccc(F)cc2)c2ccccc12)NCC1CCCO1 (stereo not drawn),"inconclusive: 50.1 µM [inhibitor, partial curve, poor fit]",
Cc1nc(NC(=O)CN2CCC(O)(c3ccc(F)cc3)CC2)sc1C,,inconclusive: -63.9% [inhibitor]
c1cncc(-c2ccc3ncnc(NC4CCNCC4)c3c2)c1,,inactive: -26.8% [at 0.501 µM]
O=C(CSc1nc(N2CCOCC2)nc(N2CCOCC2)n1)Nc1ccccc1F,"inconclusive: 79.4 µM [inhibitor, single point]",
Cc1ccc(S(=O)(=O)N2CCCCC2)cc1C(=O)NCCc1ccccc1,"inconclusive: 11.2 µM [inhibitor, partial curve, poor fit]",
